Measured values: the supplement of paper PMC10441789
Some of the results follow. Antibody binding of pooled human sera (four to six donors per pool; dilution not stated) to peptides of the Trypanosoma cruzi antigen TSSA on microarrays. Quantile-normalised fluorescence in arbitrary units, mean of duplicate arrays; higher = more binding. No active / inactive call. The uninfected pools are read here as the healthy donors of the same country. The strongest signals lie near the top of the scale (about 60,000).

Key:
Test in all cases: antibody binding signal (normalised fluorescence) (arbitrary fluorescence units); higher = stronger serum antibody binding to peptide
[1] = tested on: pooled sera of chronic Chagas disease patients, Argentina
Method: (§1)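 Microarray of 15-residue peptides over residues 30-55 of Trypanosoma cruzi TSSAII, each with 1 to 10 substitutions at naturally variable positions, probed with one serum pool per country.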

[2] = tested on: pooled sera of chronic Chagas disease patients, Bolivia
Method: as §1

[3] = tested on: pooled sera of chronic Chagas disease patients, Brazil
Method: as §1

[4] = tested on: pooled sera of chronic Chagas disease patients, Colombia
Method: as §1

[5] = tested on: pooled sera of chronic Chagas disease patients, Mexico
Method: as §1

[6] = tested on: pooled sera of chronic Chagas disease patients, USA
Method: as §1

[7] = tested on: pooled sera of uninfected people, Argentina
Method: as §1

[8] = tested on: pooled sera of uninfected people, Bolivia
Method: as §1

[9] = tested on: pooled sera of uninfected people, Brazil
Method: as §1

[10] = tested on: pooled sera of uninfected people, Colombia
Method: as §1

[11] = tested on: pooled sera of uninfected people, Mexico
Method: as §1

[12] = tested on: pooled sera of uninfected people, USA
Method: as §1

GKDNKAAAGGTPSQS
antibody binding signal [1]: 224
antibody binding signal [2]: 220
antibody binding signal [3]: 181
antibody binding signal [4]: 876
antibody binding signal [5]: 525
antibody binding signal [6]: 706
antibody binding signal [7]: 124
antibody binding signal [8]: 568
antibody binding signal [9]: 463
antibody binding signal [10]: 153
antibody binding signal [11]: 220
antibody binding signal [12]: 116

TPPSGKDKKAAAGGA
antibody binding signal [1]: 4330
antibody binding signal [2]: 267
antibody binding signal [3]: 1100
antibody binding signal [4]: 959
antibody binding signal [5]: 41200
antibody binding signal [6]: 702
antibody binding signal [7]: 270
antibody binding signal [8]: 289
antibody binding signal [9]: 143
antibody binding signal [10]: 163
antibody binding signal [11]: 104
antibody binding signal [12]: 109

STPPSGTDNKAAAGE
antibody binding signal [1]: 47500
antibody binding signal [2]: 42900
antibody binding signal [3]: 46600
antibody binding signal [4]: 2700
antibody binding signal [5]: 21900
antibody binding signal [6]: 36400
antibody binding signal [7]: 1120
antibody binding signal [8]: 579
antibody binding signal [9]: 954
antibody binding signal [10]: 147
antibody binding signal [11]: 201
antibody binding signal [12]: 202

TDNKTATGGTPSPSG
antibody binding signal [1]: 452
antibody binding signal [2]: 1020
antibody binding signal [3]: 787
antibody binding signal [4]: 590
antibody binding signal [5]: 359
antibody binding signal [6]: 564
antibody binding signal [7]: 231
antibody binding signal [8]: 550
antibody binding signal [9]: 437
antibody binding signal [10]: 494
antibody binding signal [11]: 183
antibody binding signal [12]: 201

TDKKTATGGTPSPPG
antibody binding signal [1]: 784
antibody binding signal [2]: 926
antibody binding signal [3]: 376
antibody binding signal [4]: 3970
antibody binding signal [5]: 635
antibody binding signal [6]: 1390
antibody binding signal [7]: 249
antibody binding signal [8]: 163
antibody binding signal [9]: 297
antibody binding signal [10]: 697
antibody binding signal [11]: 147
antibody binding signal [12]: 132

GKENKAAAGEAPSQS
antibody binding signal [1]: 6760
antibody binding signal [2]: 6660
antibody binding signal [3]: 22100
antibody binding signal [4]: 11900
antibody binding signal [5]: 7870
antibody binding signal [6]: 22200
antibody binding signal [7]: 371
antibody binding signal [8]: 134
antibody binding signal [9]: 101
antibody binding signal [10]: 107
antibody binding signal [11]: 116
antibody binding signal [12]: 95

GTDNKTATGETPSPP
antibody binding signal [1]: 594
antibody binding signal [2]: 1310
antibody binding signal [3]: 31200
antibody binding signal [4]: 204
antibody binding signal [5]: 252
antibody binding signal [6]: 7920
antibody binding signal [7]: 175
antibody binding signal [8]: 486
antibody binding signal [9]: 1030
antibody binding signal [10]: 142
antibody binding signal [11]: 172
antibody binding signal [12]: 358

PSGKDNKPATGGAPS
antibody binding signal [1]: 3860
antibody binding signal [2]: 1330
antibody binding signal [3]: 8100
antibody binding signal [4]: 4260
antibody binding signal [5]: 3840
antibody binding signal [6]: 8090
antibody binding signal [7]: 881
antibody binding signal [8]: 1290
antibody binding signal [9]: 150
antibody binding signal [10]: 139
antibody binding signal [11]: 152
antibody binding signal [12]: 156

KEKKPAAGETPSPSG
antibody binding signal [1]: 184
antibody binding signal [2]: 208
antibody binding signal [3]: 226
antibody binding signal [4]: 147
antibody binding signal [5]: 160
antibody binding signal [6]: 876
antibody binding signal [7]: 101
antibody binding signal [8]: 92.7
antibody binding signal [9]: 84.8
antibody binding signal [10]: 62.5
antibody binding signal [11]: 85
antibody binding signal [12]: 665

PPSGKENKTATGGTP
antibody binding signal [1]: 4820
antibody binding signal [2]: 547
antibody binding signal [3]: 3360
antibody binding signal [4]: 1770
antibody binding signal [5]: 2590
antibody binding signal [6]: 3880
antibody binding signal [7]: 2690
antibody binding signal [8]: 1320
antibody binding signal [9]: 133
antibody binding signal [10]: 561
antibody binding signal [11]: 274
antibody binding signal [12]: 274

TISTPPSGKDKKPAT
antibody binding signal [1]: 24500
antibody binding signal [2]: 1910
antibody binding signal [3]: 3750
antibody binding signal [4]: 311
antibody binding signal [5]: 52000
antibody binding signal [6]: 611
antibody binding signal [7]: 200
antibody binding signal [8]: 375
antibody binding signal [9]: 217
antibody binding signal [10]: 170
antibody binding signal [11]: 149
antibody binding signal [12]: 159

TISTPPSGKDKKAAA
antibody binding signal [1]: 21300
antibody binding signal [2]: 433
antibody binding signal [3]: 760
antibody binding signal [4]: 384
antibody binding signal [5]: 44300
antibody binding signal [6]: 621
antibody binding signal [7]: 302
antibody binding signal [8]: 270
antibody binding signal [9]: 124
antibody binding signal [10]: 139
antibody binding signal [11]: 89
antibody binding signal [12]: 198

SGTENKTATGEAPSQ
antibody binding signal [1]: 23300
antibody binding signal [2]: 35200
antibody binding signal [3]: 31200
antibody binding signal [4]: 190
antibody binding signal [5]: 180
antibody binding signal [6]: 21600
antibody binding signal [7]: 506
antibody binding signal [8]: 281
antibody binding signal [9]: 187
antibody binding signal [10]: 208
antibody binding signal [11]: 213
antibody binding signal [12]: 122

SGKENKTATGGAPSQ
antibody binding signal [1]: 4180
antibody binding signal [2]: 893
antibody binding signal [3]: 19000
antibody binding signal [4]: 6280
antibody binding signal [5]: 4550
antibody binding signal [6]: 20100
antibody binding signal [7]: 5800
antibody binding signal [8]: 1420
antibody binding signal [9]: 166
antibody binding signal [10]: 304
antibody binding signal [11]: 343
antibody binding signal [12]: 170

EKKTAAGGAPSPSGA
antibody binding signal [1]: 384
antibody binding signal [2]: 518
antibody binding signal [3]: 212
antibody binding signal [4]: 7000
antibody binding signal [5]: 719
antibody binding signal [6]: 858
antibody binding signal [7]: 252
antibody binding signal [8]: 731
antibody binding signal [9]: 141
antibody binding signal [10]: 217
antibody binding signal [11]: 174
antibody binding signal [12]: 561

SGKDKKTATGETPSQ
antibody binding signal [1]: 527
antibody binding signal [2]: 403
antibody binding signal [3]: 1880
antibody binding signal [4]: 605
antibody binding signal [5]: 479
antibody binding signal [6]: 4590
antibody binding signal [7]: 285
antibody binding signal [8]: 121
antibody binding signal [9]: 104
antibody binding signal [10]: 316
antibody binding signal [11]: 97
antibody binding signal [12]: 109

TEKKTAAGGAPSPSG
antibody binding signal [1]: 549
antibody binding signal [2]: 505
antibody binding signal [3]: 252
antibody binding signal [4]: 8220
antibody binding signal [5]: 1080
antibody binding signal [6]: 1530
antibody binding signal [7]: 209
antibody binding signal [8]: 196
antibody binding signal [9]: 208
antibody binding signal [10]: 281
antibody binding signal [11]: 480
antibody binding signal [12]: 283

SGKDNKAATGGTPSQ
antibody binding signal [1]: 746
antibody binding signal [2]: 333
antibody binding signal [3]: 696
antibody binding signal [4]: 1310
antibody binding signal [5]: 1090
antibody binding signal [6]: 883
antibody binding signal [7]: 203
antibody binding signal [8]: 236
antibody binding signal [9]: 225
antibody binding signal [10]: 328
antibody binding signal [11]: 102
antibody binding signal [12]: 90.1

TENKTAAGETPSQSG
antibody binding signal [1]: 15200
antibody binding signal [2]: 506
antibody binding signal [3]: 2680
antibody binding signal [4]: 119
antibody binding signal [5]: 206
antibody binding signal [6]: 1740
antibody binding signal [7]: 164
antibody binding signal [8]: 214
antibody binding signal [9]: 210
antibody binding signal [10]: 134
antibody binding signal [11]: 259
antibody binding signal [12]: 112

TPPSGKDNKPATGGA
antibody binding signal [1]: 17400
antibody binding signal [2]: 1010
antibody binding signal [3]: 27400
antibody binding signal [4]: 493
antibody binding signal [5]: 38200
antibody binding signal [6]: 13400
antibody binding signal [7]: 987
antibody binding signal [8]: 1490
antibody binding signal [9]: 226
antibody binding signal [10]: 211
antibody binding signal [11]: 185
antibody binding signal [12]: 305
